In PubChem BioAssay AID1963576 (National Center for Advancing Translational Sciences (NCATS), 2024):
Among all 46,000 compounds or so, about 60 (0.1%) were called active. Inconclusive results (about 3%) are left out. The call rests on the fitted dose curve; in most records, active means well fitted inhibition curve with a large enough effect; inconclusive means small, poorly fitted or top-dose-only effect; inactive means no such curve, though single readings can be large or run the other way. This is one part of the list.

Experiment: Primary qHTS assay for Inhibitors of ovarian cancer metastasis using an organotypic tumor microenvironment (TME) model. Further: nearly all actives have a fitted effect of over 65% in size.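 On activity change, negative = inhibition: plate controls were DMSO wells for no effect and tomatine positive control wells for full effect.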
Conditions: SKOV3ip1-GFP adhesion/invasion on 3D omental model, fluorescence; series mostly up to 45.8 µM; activity change, negative = inhibition: at the top concentration
Method in brief: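 Adhesion/invasion was scored as fixed GFP-labeled SKOV3ip1 cell counts (488/509 nm), normalized to DMSO and tomatine controls. Cancer cells in serum-free medium, with four compound doses (0.36-46 umol/L), sat 2 hr at RT then 16 hr at 37 C on a 48 hr fibroblast/mesothelial/ECM culture.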

outcome, inactive:
Cc1ccc(C)c(NC(=O)CSc2ncc3c(n2)-c2cc(Cl)ccc2N(Cc2ccccc2F)S3(=O)=O)c1, CCCCNc1nc2c(c(=O)n(Cc3ccc(Cl)c(Cl)c3)c(=O)n2C)n1C, CCOc1ccc(NC(=O)Cn2cc(S(=O)(=O)N3CCN(c4ccccc4F)CC3)c3ccccc3c2=O)cc1, COc1ccc(N(CC(=O)N2CCN(c3ccc(F)cc3)CC2)S(=O)(=O)c2c(C)n[nH]c2C)cc1, COc1ccc(-c2noc(-c3ccc(N4CCC(C)CC4)c([N+](=O)[O-])c3)n2)cc1OC, CCOC(=O)c1cc(-c2ccc(C)cc2)n(CC(=O)NC2CCCCCC2)c1C, Cc1cccc(C(=O)Nc2ccc(OCc3cc(=O)n4c5c(sc4n3)CCCC5)cc2)c1, CCC(=O)Nc1sc2c(c1C(=O)Nc1cccc(C)c1)CCCC2, O=C(Nc1c(Cl)cccc1Cl)c1cc(-c2cccc(O)c2)on1, COC(=O)Cc1c(C)c2cc3c(c(C)c2oc1=O)OCN(CCc1ccc(OC)cc1)C3, COc1cc2cc(CNc3ccccc3)c(=O)n(CC(=O)Nc3cc(C)cc(C)c3)c2cc1OC, CCCCc1nc2ccccc2n1CC(=O)N(COCC)c1c(C)cccc1CC, COc1cc(NC(=O)c2ccc(-n3cnc4cccnc43)cc2)cc(OC)c1, COc1cccc(N2CCN(C(=O)Cn3cnc4onc(-c5ccc(F)cc5)c4c3=O)CC2)c1, CCc1nn(CC(=O)N2CCN(c3cccc(C(F)(F)F)c3)CC2)c(=O)c2cc3occc3n12, COc1cccc2cc(-c3nnc(-c4ccc(Cl)cc4)o3)c(=O)oc12, CC(=O)Nc1ccc(S(=O)(=O)N2CCN(c3ccccc3)CC2)cc1, COc1cccc(CNC(=O)CN(c2ccc(C(C)C)cc2)S(=O)(=O)c2c(C)n[nH]c2C)c1, CCc1cccc(CC)c1NC(=O)c1c(C)oc2ccc(O)c(CN3CCOCC3)c12

Activity change, negative = inhibition, inactive:
CCCSCCCNC(=O)c1cc2n(n1)CCCN(Cc1ccc(C)cc1)C2=O 3.16%, CCOc1ccc(CCNC(=O)CCN2N=C(c3ccc(OC)cc3)CCC2=O)cc1OCC -8.47%, CC1COC2(CCN(c3nc(=O)c4cc(C(F)(F)F)cc([N+](=O)[O-])c4s3)CC2)O1 (stereo not drawn) -4.63%, CC(C)(C)c1ccc(C(=O)NC(Cc2c[nH]c3ccccc23)C(=O)OCC(=O)c2ccc(Cl)cc2)cc1 (stereo not drawn) -6.37%, O=C(NCCc1csc2nc(-c3cccc(F)c3)nn12)c1ccc(Br)o1 1.79%, Cc1ccc(CNC(=O)CSc2nc3n[nH]c(C)c3c(=N)n2-c2cccc(C)c2)cc1 5.49%, CCOC(=O)c1scc(-c2ccccc2)c1S(=O)(=O)N1CCN(c2ccccc2OC)CC1 -10.4%, COc1ccc(NC(=O)c2oc3ccc(S(=O)(=O)N(C)C4CCCCC4)cc3c2C)cc1 -0.955%, CCc1ccc(NC(=O)CCNS(=O)(=O)c2ccc3c(c2)CCCC(=O)N3)cc1 0.582%, Cc1ccc(CNC(=O)c2cccc(-n3cnc4cccnc43)c2)cc1 16%, CCSc1nnnn1-c1cccc(C(=O)O)c1 4.91%, Cc1cc2nc(-c3cccc(NC(=O)CSc4ccc(Cl)cc4)c3)oc2cc1C -24.2%, COc1cccc(NS(=O)(=O)c2ccc3c(c2)CCCN3C(=O)C2CCC2)c1 1.19%, COc1ccc(-c2nn(-c3cccc([N+](=O)[O-])c3)c3c2cnc2cc4c(cc23)OCO4)cc1 -13.2%, CC(C)c1ccc(Nc2nc3c(S(=O)(=O)c4ccc(Br)cc4)nnn3c3ccsc23)cc1 4.97%, CCCN(C(=O)c1cc2c(s1)-c1c(C)cccc1OC2)c1ccc(OCC)cc1 0.162%, Cc1ccc(NC(=O)C(Cc2ccccc2)n2cccc2)cc1C (stereo not drawn) -15.3%, Cc1ccc(-c2nc3ccccn3c2Nc2ccc3c(c2)OCO3)o1 -20.9%, O=C(/C=C/c1cn(CC(O)CN2CCCCCC2)c2ccccc12)c1ccc(Br)cc1 (stereo not drawn) -4.66%, COC(=O)c1ccccc1NC(=O)c1cc2c(-c3ccc(OC)c(OC)c3)nn(C)c2s1 -0.818%, C=CCC(CC=C)(CNC(=O)C(=O)Nc1ccc(C(=O)OCC)cc1)c1ccccc1 -5.68%, COc1ccccc1Nc1nn2c(=O)c3ccc(C(=O)NC(C)c4ccccc4)cc3nc2s1 (stereo not drawn) 5.85%, Cc1ccc(NC(=O)Cn2cc(S(=O)(=O)c3ccccc3)c(=O)c3cc4c(cc32)OCO4)cc1 12.8%, COc1ccc(C2c3[nH]c4ccc(OC)cc4c3CCN2C(=O)Nc2ccccc2)cc1 (stereo not drawn) -5.28%, Cc1c(NC(=O)Nc2ccc(C#N)cc2)c(=O)n(-c2ccccc2)n1C -27.6%, Cc1cccc(-c2c3c(=O)n(C)c(=O)n(C)c3c3cnc4ccccc4n23)c1 -0.327%, CCN(CC)c1ccc2cc(-c3nc(-c4cc(OC)c(OC)c(OC)c4)no3)c(=O)oc2c1 -8.55%, Cc1cc(C)c2c(n1)SCCN2C(=O)Nc1ccc(C(=O)Nc2ccc(C(C)C)cc2)cc1 -5.44%, Cc1cc(C)c(NC(=O)Cn2nnc(-c3nc(-c4ccccc4)no3)c2N)c(C)c1 0.144%, CCN(CCN(C)C)C(=O)C1CCN(S(=O)(=O)c2c(C)noc2/C=C/c2ccccc2F)CC1 -1.72%, CC(=O)N1CCCc2cc(S(=O)(=O)N3CCN(c4cccc(C(F)(F)F)c4)CC3)ccc21 -11%, COc1ccccc1NC(=O)C1CCN(c2cnccn2)CC1 8.2%, CSc1ncc(C(=O)Nc2cc(Cl)ccc2C)c(-c2ccccc2)n1 -1.98%, Cc1ccc(-c2cc(C(F)(F)F)nn2-c2ccc(S(N)(=O)=O)cc2)cc1 -1.2%, Cc1cc(C)cc(-n2ccn(CC(=O)Nc3ccccc3F)c(=O)c2=O)c1 -10.8%, CCOc1ccc(-n2nc(CO)c(C(=O)NCc3cccc(OC)c3)n2)cc1 -4.71%, CC(=O)c1ccc(NC(=O)c2nc3nc(C)cc(C(F)F)n3n2)cc1 -5.65%, O=C(CCC1N=C2c3ccccc3N=C(SCc3ccc(F)cc3)N2C1=O)NC1CCCCC1 (stereo not drawn) 6.28%, COC(=O)c1ccccc1NC(=O)Cn1c(=O)n(CCCC(=O)NCc2ccccc2OC)c(=O)c2ccccc21 43.2%, COc1ccc(-c2cc(=O)oc3c4c(ccc23)OCN(Cc2cccc(OC)c2)C4)cc1 2.87%, Cc1ccc(C)c(NC(=O)C(c2ccccc2)N2Cc3ccccc3C2=O)c1 (stereo not drawn) -0.306%, Cc1ccc2oc(-c3ccc(Cl)c(NC(=O)c4ccc(OC(C)C)cc4)c3)nc2c1 -3.71%, Cc1cc(C)cc(NC(=O)C2CCN(S(=O)(=O)c3ccc4c(c3)oc(=O)n4C)CC2)c1 9.23%, Cc1ccccc1-c1noc(-c2cc(-c3ccc(F)cc3)n[nH]2)n1 -15.5%, Cc1ccc(NC(=O)C2CCC(CNS(=O)(=O)c3ccc4c(c3)CCCC(=O)N4)CC2)c(C)c1 (stereo not drawn) 0.82%, Cc1cn2c(=O)cc(COc3ccccc3NC(=O)c3ccc(Cl)cc3)nc2s1 4%, CCOC(=O)c1ccc(NC(=O)CSc2nc3c([nH]c4ccccc43)c(=O)n2C)cc1 -18.3%, CC(C)c1ccc(Nc2c(-c3ccco3)nc3ccccn23)cc1 -1.71%, COc1ccc(C(=O)Nc2nc3ccc(S(=O)(=O)N4CCCC4)cc3s2)cc1 15.7%, COc1ccccc1-c1nnc(C2CCN(S(=O)(=O)c3ccccc3)CC2)o1 4.61%, O=C(Nc1ccc(NC(=O)c2ccc(Br)cc2)c(Cl)c1)c1ccc(Br)cc1 0.504%, Cn1cc(S(=O)(=O)N2CCCC2)cc1C(=O)Nc1ccc(C(F)(F)F)cc1 -12%, COc1ccc(CNc2oc(COc3cccc(C)c3)nc2C#N)cc1 -7.07%, COc1cccc(-c2nc(CS(=O)(=O)CC(=O)NCCCN3CCN(C)CC3)c(C)o2)c1 -0.88%, CCCCCn1c(=O)[nH]c2cc(C(=O)Nc3ccc(OC)c(OC)c3)ccc2c1=O 6.15%, COc1ccc(C)cc1NC(=O)C1CCCN(S(=O)(=O)c2ccc3c(c2)oc(=O)n3C)C1 (stereo not drawn) 50.8%, Cn1c(=O)c(=O)n(C)c2cc(N3CCCC3)c(NC(=O)c3ccc(C(C)(C)C)cc3)cc21 2.8%, COc1cccc(-c2nnc3n(CCc4ccccc4)c(=O)c4ccccc4n23)c1O 2.32%, CCOC(=O)CC(=O)CSc1nc2ccccc2c(=O)n1CCc1ccccc1 -2.14%, O=C(O)C1=CC(O)C(O)[C@H](O)C1 (stereo partly drawn) -14.5%, Cc1ccc(SCc2nc(-c3ccc(C(=O)NCc4ccccc4Cl)cc3)oc2C)cc1 10.4%, CC(=O)Nc1cccc(NC(=O)C2(c3cccs3)CCOCC2)c1 0.94%, O=C(CCC1N=C2c3ccccc3N=C(SCC(=O)Nc3ccccc3F)N2C1=O)NCc1cccs1 (stereo not drawn) 0.735%, CCOC(=O)C1=C(c2ccccc2)Nc2ncnn2C1c1ccc(Cl)cc1 (stereo not drawn) -5.33%, COc1cc(OC)cc(C(=O)Nc2ccc3oc(-c4ccc(Cl)cc4)nc3c2)c1 9.52%, CCSc1nnc2c(n1)OC(c1ccc(OCC(=O)O)cc1)Nc1ccccc1-2 (stereo not drawn) -11.7%, CCn1cc(C(=O)NCCOC)c(=O)c2cc(S(=O)(=O)N3CCOCC3)ccc21 -5.14%, CCc1ccc(NC(=O)C2CCN(S(=O)(=O)c3c(C)noc3/C=C/c3cccs3)CC2)cc1 -3.68%, Cc1cccc(NC(=O)CSc2cn(CC(=O)N3CCOCC3)c3ccccc23)c1 -29.1%, COc1ccc(S(=O)(=O)N(CCc2ccccc2)CC(=O)Nc2cc(C)ccc2C)cc1 4.08%, CCOC(=O)c1cccc(NS(=O)(=O)c2c(C)nc3sc(C)cn3c2=O)c1 4.67%, Cc1nc2ccc(S(=O)(=O)N(CC(=O)Nc3ccc(Cl)cc3)Cc3ccccc3)cc2s1 5.64%, COc1ccc(CNC(=O)c2ccc3c(c2)NC(=O)C(CS(=O)(=O)Cc2ccccc2Cl)N3)cc1 (stereo not drawn) 0.119%, O=C(c1ccc2c(c1)N(Cc1cccc(Cl)c1)C(=O)c1ccccc1S2(=O)=O)N1CCC(Cc2ccccc2)CC1 -2.15%
